Results reported in PubChem BioAssay AID485344 (National Center for Advancing Translational Sciences (NCATS), 2010).
The whole screen tested about 340,000 compounds, of which about 6,900 (2%) were called active. Cut-off read from the data, not from the text of the source: active = inhibition above about 30%; inactive = below that, where a call was filed. The list shows a part of the results, in another mix than the full data. Entries without a call were filed so in the source.

Each molecule was assayed against D(2) dopamine receptor (Homo sapiens) (UniProt P14416) (assay: HTS Assay for Allosteric Antagonists of the Human D2 Dopamine Receptor: Primary Screen for Antagonists). Details: HEK293 TREx D2 cells, calcium flux, dopamine EC80; at 10 µM; stronger effect = higher value.
Summary of the method: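 Cells plated overnight at 30 C with tetracycline; no-wash calcium dye, 30–90 min RT; 10 s baseline; compound pinned; 180 s read; EC80 dopamine added; another 180 s read.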
Note: 0% is about no effect.

Chain of UniProt P14416 (P14416 whole entry, looked up): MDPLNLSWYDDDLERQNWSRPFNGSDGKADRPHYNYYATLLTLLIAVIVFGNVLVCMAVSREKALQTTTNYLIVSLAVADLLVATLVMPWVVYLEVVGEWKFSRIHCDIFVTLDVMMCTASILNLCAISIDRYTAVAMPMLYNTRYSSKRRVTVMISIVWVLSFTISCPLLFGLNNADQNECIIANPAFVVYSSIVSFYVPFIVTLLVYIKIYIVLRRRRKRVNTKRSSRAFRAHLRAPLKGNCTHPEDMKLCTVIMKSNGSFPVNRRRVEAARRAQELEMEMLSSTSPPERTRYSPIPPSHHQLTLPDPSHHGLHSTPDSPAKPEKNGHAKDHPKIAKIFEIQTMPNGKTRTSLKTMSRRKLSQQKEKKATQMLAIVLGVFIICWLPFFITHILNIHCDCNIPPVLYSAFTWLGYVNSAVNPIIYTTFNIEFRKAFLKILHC

SMILES	inhibition
CCCCc1cc(=O)oc2cc(C)c3c(C)coc3c12	-5.57%
CC(C)N1CCc2c(sc(NC(=O)Cc3ccccc3)c2C(N)=O)C1	active: 40.1%
CSc1ncc(Cl)c(C(=O)Nc2ccc(S(=O)(=O)N3CCC(C)CC3)cc2)n1	-1.76%
CCOC(=O)c1cccc(NC(=O)c2ccc3c(c2)nnn3C2CCCC2)c1	-0.394%
Cc1ccc(C2c3c(-c4ccccc4O)n[nH]c3C(=O)N2CCCO)cc1 (centres undefined)	-1.61%
O=C(NCCn1cc(SCc2ccc(F)cc2)c2ccccc21)c1c(F)cccc1F	-14.5%
Cn1cnc(S(=O)(=O)N2CCCC(C(=O)Nc3ccc(F)cc3Cl)C2)c1 (centres undefined)	-5.62%
Cn1nnnc1SCCNCc1ccccc1OCc1ccccc1F	-13.5%
Cc1ccc(Cn2c(C(=O)Nc3cccc(Cl)c3)cc3sccc32)cc1	16.2%
COc1ccccc1NC(=O)CSc1nnc(-c2ccccc2C)o1	-11.5%
COc1ccccc1CNS(=O)(=O)c1c(C(=O)N2CCCCC2)c(C)n(C)c1C	active: 30.1%
Cc1ccc2c(=O)cc(C(=O)Nc3sc4c(c3C(=O)NCc3ccco3)CCC4)oc2c1	0.404%
CC1=C(C(=O)OCc2ccc(C)cc2)C(c2ccccc2F)CC(=O)N1 (centres undefined)	13.8%
O=C(c1ccc(CN2CCc3ccccc3C2)cc1)N1CCCCC1	active: 34.9%
CCc1ccc(CNC(=O)c2c3c(nc4ccccc24)C(=O)N(C2CCCCC2)C3)cc1	17%
Cc1ccccc1OCCCCn1c(-c2ccc(Cl)cc2)nc2ccccc2c1=O	5.46%
CCOC(=O)c1c(C)[nH]c(C)c1S(=O)(=O)N(C)CC(=O)Nc1cc(Cl)ccc1C	-2.13%
Clc1ccc(OCCN2CCCCC2)cc1Cl	active: 103%
CCOC(=O)c1ccc(N2C(=O)c3[nH]nc(-c4ccc(C)cc4)c3C2c2ccc(O)c(OCC)c2)cc1 (centres undefined)	4.19%
COc1cc2c(=O)c(C(=O)c3ccc(C)c(C)c3)cn(Cc3ccccc3F)c2cc1OC	3.3%
COc1ccc(F)cc1C(=O)C1CCCN(Cc2cccn2-c2cccnc2)C1 (centres undefined)	active: 74%
COCCNC(=O)c1ccc2c(=O)n(CCc3ccccc3)c(SCC(=O)CC(=O)OC)nc2c1	-12%
CC(=O)N1c2ccc(S(=O)(=O)N3CCC(C(=O)Nc4cc(C)cc(C)c4)CC3)cc2CC1C (centres undefined)	active: 70.6%
COc1cccc(-c2nc(S(=O)(=O)c3ccccc3)c(N3CCCCC3)o2)c1	-7.39%
CCC(C)NC(=O)CSc1nc2cc3c(cc2c(=O)n1CCCC(=O)NCCc1ccc(OC)c(OC)c1)OCO3 (centres undefined)	0.915%

SMILES	inhibition
Cc1cccc(OCCSc2nc3ccccc3n2CC(=O)N2CCOCC2)c1	5.24%
COc1ccccc1CNC(=O)c1ccc(CS(=O)(=O)c2c(Cl)cccc2Cl)o1	2.47%
COc1ccc(-n2nc([N+](=O)[O-])c(=NC3CCN(Cc4ccccc4)CC3)n2O)cc1	active: 71.2%
Cc1ccc(NC(=O)CCOc2ccccc2)cc1	-23%
COc1ccc(NC(=O)c2cccc(N3CCCS3(=O)=O)c2)cc1OC	10.7%
COc1ccccc1N1CCN(C(=O)Cn2c(=O)n3nc(-c4ccc(C)cc4)nc3c3ccccc32)CC1	-0.498%
CC(C)Cc1ccc(S(=O)(=O)N2CCC(c3ccncc3)CC2)cc1	-5.1%
O=C(Nc1ccccc1)/C(=C/c1ccccc1)NC(=O)c1ccco1	active: 30.1%
Cc1nc(N2CCCC2)ncc1C(=O)NCc1cccc(Cl)c1	3.97%
COC(=O)c1ccc(NC(=O)CCS(=O)(=O)c2ccc(Br)s2)cc1	16.1%
COC(=O)c1ccc(NC(=O)CC2C(=O)N(c3cccc(OC)c3)C(=O)N2Cc2ccco2)cc1 (centres undefined)	3.9%
CCc1ccc(NC(=O)CSc2nc3ccccc3nc2Cc2ccc(C)cc2)cc1	-4.57%
Cc1nnc(N2C(=O)c3oc4ccccc4c(=O)c3C2c2ccc(C(C)(C)C)cc2)s1 (centres undefined)	1.53%
COc1ccc(C)cc1NC(=O)CN1c2ccccc2S(=O)(=O)c2ccccc21	9.82%
COc1ccc(C(=O)CSc2nc(C)cc(C)c2C(=O)Nc2ccccc2C)cc1	0.557%
COc1ccc(Cl)cc1-n1nnc(-c2nc(-c3ccccc3)no2)c1C	-0.278%
COc1ccc(-c2nc3cc(C(C)C)ccc3o2)cc1NC(=O)c1ccccc1[N+](=O)[O-]	6.11%
Cn1c(SCC(=O)Nc2ccccc2)nnc1-c1ccccc1	-8.33%
Cc1ccc(CNc2nc(-c3ccco3)nn2S(C)(=O)=O)cc1	23.4%
CC1=Nc2ccc(Br)cc2C(c2ccccc2)N1CC(=O)NN (centres undefined)	active: 36.1%
COc1ccc2c(c1)c(=O)c(C(=O)c1ccc(C)c(C)c1)cn2CC(=O)Nc1ccc2c(c1)OCCO2	12.7%
CCOc1ccccc1CNC(=O)CCn1c(=O)c2cccn2c2ccc(F)cc21	-6.04%
Cc1ccc(Cn2c(CN3CCC(C(=O)NCc4ccccc4C)CC3)cc3ccccc32)cc1	-23.1%
COc1ccc(NC(=O)C2COc3ccccc3C2)cc1Cl (centres undefined)	-9.68%
O=C(NCc1ccc(Cl)cc1)c1ccc2c(Cl)c3c(nc2c1)CCCC3	14.6%

SMILES	inhibition
Cc1ccc(C)c(N2CCN(C(=O)CCC(=O)Nc3ccc4nc(N5CCCCC5)cc(C)c4c3)CC2)c1	2.28%
Clc1ccccc1OCCN1CCC(Cc2ccccc2)CC1	active: 63.3%
Cc1ccc(OCCSc2nnc(-c3cccs3)o2)cc1Cl	10.5%
CCOC(=O)c1cccc(NC(=O)CCCn2nc(C)c3c(C)n(-c4ccccc4)nc3c2=O)c1	-5.57%
CCOC(=O)c1c(C)n(-c2ccccc2)c2ccc(OC(=O)c3ccccc3NC(=O)C(C)C)cc12	5.67%
CC(=O)Nc1ccc(NC(=O)C2CCN(c3c(NC(C)=O)c(C)nn3-c3ccccc3)CC2)cc1	5.45%
COc1ccc(Cl)cc1NC(=O)Cn1ncc2c3ccccc3n(C)c2c1=O	-1.11%
Cc1nn(CC(=O)NCc2ccc(F)cc2)c2ccccc12	13.2%
Cc1ccc2[nH]c3c(=O)n(CC(=O)NCc4ccco4)ncc3c2c1	-0.989%
Cc1cc(N2CCN(c3cccc(C)c3C)CC2)n2cnnc2n1	-3.05%
CCOC(=O)c1cnn(-c2ccc(C(=O)Nc3ccc(OC(F)(F)F)cc3)cc2)c1N	9.3%
CC(=O)Nc1ccc(NC(=O)C2CCCN(S(=O)(=O)c3ccc4c(c3)CCCC(=O)N4)C2)cc1 (centres undefined)	-1.14%
S=C(Nc1ccccc1Cl)NC1CCN(Cc2ccccc2)CC1	active: 84.6%
COc1ccc(Br)cc1C(=O)Nc1cccc2ccc(C)nc12	5.87%
COc1cc(-c2nc(S(=O)(=O)c3ccc(Br)cc3)c(N3CCOCC3)o2)cc(OC)c1OC	-12.4%
CCCCCCCC/C=C\CCCCCCCC(=O)NCCc1ccc(O)c(O)c1	active: 56.6%
O=C(c1cccs1)N1CCN(Cc2ccccc2)CC1	active: 63.9%
O=C(c1ccccc1)c1ccc(OCC(O)CN2CCCC2)cc1 (centres undefined)	active: 71.8%
CCc1nc2nc(C)cc(Nc3cc(Cl)ccc3C)n2n1	12.1%
CCc1ccc(CNC(=O)c2ccc3c(Cl)c4c(nc3c2)CCCC4)cc1	-2.61%
Cc1ccc(N(CC(=O)NCCc2ccccc2C)S(=O)(=O)N(C)C)cc1	7.89%
COc1ccccc1CNC(=O)c1cccc(N2CCCS2(=O)=O)c1	-0.38%
CCOC(=O)c1ccc(NC(=O)C2CC(=O)NC(=Nc3ccc(C)c(C)c3)S2)cc1 (centres undefined)	7.55%
COc1ccccc1CNC(=O)Cn1c(=O)oc2cc(S(=O)(=O)N3CCCC3)ccc21	-3.32%
Cc1cccc(NC(=O)Nc2ccc(F)cc2)n1	-12.4%

SMILES	inhibition
Cc1cccc2c1-c1sc(C(=O)N3CCN(c4ccccc4)CC3)cc1CO2	-4.45%
COc1ccc(-c2noc(N3CCC(C(=O)N4CCN(c5ccccc5OC)CC4)CC3)n2)cc1	-15.6%
Cc1ccc2nc(NCc3ccccc3)c3nnnn3c2c1	11.9%
CCCCNS(=O)(=O)c1ccc2nc(-c3cccnc3)cc(C(=O)NCCCOC(C)C)c2c1	-22.6%
CCOc1cccc(Nc2nn(-c3ccc(OC(F)(F)F)cc3)nc2C(C)=O)c1	6.18%
COc1ccc(Nc2nc(-c3cccc(Cl)c3)c3c(n2)-c2ccccc2OC3)cc1	9.48%
CCOc1ccccc1CNC(=O)Cc1ccc(NC(=O)N2CCCCc3ccccc32)cc1	8.88%
CCOc1ccc(NC(=O)CSc2nc3ccsc3c(=O)n2C(C)CC)cc1 (centres undefined)	-15.1%
O=C(Nc1cccnc1)c1ccc2snnc2c1	active: 35.4%
CCOc1ccc(CCNC(=O)CCc2c(C)nc3c(c(C)nn3-c3ccc(C)c(C)c3)c2C)cc1	10.6%
COC(=O)c1cc2oc3ccccc3c2n1Cc1nc(-c2ccccc2Cl)oc1C	-7.5%
CC(C)Sc1nc2sc3c(c2c(=O)n1Cc1ccccc1)CCCC3	-0.504%
Cc1ccc(NC(=O)C2CCN(S(=O)(=O)c3c(C)noc3C)CC2)cc1	8.42%
CC1(C)CC(=O)c2cc(-c3nc(-c4ccccc4)cs3)c(=O)[nH]c2C1	-16.1%
Cc1nnc(C)n1-c1ccc(C(=O)Nc2cccc(Br)c2)cc1	-2.46%
COCCCNC(=O)NC(CCC(C)C)c1c(-n2cccc2)sc2c1CCN(C)C2 (centres undefined)	16.2%
Cc1c(Cl)cccc1NC(=O)CCCn1nc(C)c2sc3ccccc3c2c1=O	-1.62%
CCC1CCCCN1S(=O)(=O)c1ccc(NC(=O)c2cc(=O)c3c(C)cc(C)cc3o2)cc1 (centres undefined)	4.32%
COc1cccc(N2CCN(c3c4c(nc5nncn35)CCC4)CC2)c1	11.6%
Cc1cccc(Cn2cc3c(=O)n(CC(=O)Nc4c(C)cccc4C)nc-3c3cc(F)ccc32)c1	-3.45%
Cc1nn(-c2ccc(N3CCCCC3)nn2)c(C)c1CCC(=O)NCc1ccc(F)cc1	7.88%
CCc1ccccc1NC(=O)CN1C(=O)CCn2nc(-c3cccn3C)cc21	-15.1%
Cc1ccc(-c2c(CN3CCN(c4cc(C)ccc4C)CC3)csc2C)cc1	2.83%
CCN(CC)C(=O)CSc1nnc2ccc3ccccc3n12	-20.5%
